Experimental findings from CN117126289A (SUNSHINE GUOJIAN PHARMACEUTICAL SHANGHAI CO LTD, dated 2023) are described below.

The target of this test is T1, 重组Human-TROP-2-HIS蛋白 (human, UniProt P09758 27-274, limits assumed).
T1 construct: Bought protein; also called TROP-2-HIS蛋白 (恺佧, TRP-HM121); not shown: His tag
T1 sequence (looked up): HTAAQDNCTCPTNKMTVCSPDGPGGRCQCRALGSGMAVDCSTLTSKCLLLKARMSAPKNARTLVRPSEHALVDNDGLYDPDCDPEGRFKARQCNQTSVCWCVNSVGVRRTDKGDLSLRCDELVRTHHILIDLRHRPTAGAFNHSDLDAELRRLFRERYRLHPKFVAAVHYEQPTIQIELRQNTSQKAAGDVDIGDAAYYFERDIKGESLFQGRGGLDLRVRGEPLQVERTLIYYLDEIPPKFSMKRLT
The test can be described thus: ELISA, coated TROP-2-HIS 200 ng/ml, HRP goat anti-human Fc. (An ELISA detects its analyte on a solid surface through an enzyme-linked reagent.)

B1: 抗TROP-2/CD3双特异性抗体a (bispecific antibody)
heavy: QVQLVQSGPEVKKPGASVKVSCKASGYTFTDYWLGWVRQAPGQGLEWMGNIFPGSAYINYNEKFKGKVTITADTSTSTAYMELSSLRSEDTAVYFCAREGSNSGYWGQGTLVTVSSASTKGPSVFPLAPSSKSTSGGTAALGCLVKDYFPEPVTVSWNSGALTSGVHTFPAVLQSSGLYSLSSVVTVPSSSLGTQTYICNVNHKPSNTKVDKKVEPKSCGGGGSGGGGSGGGGSEVQLVESGGGLVQPGGSLRLSCAASGFTFNTYAMNWVRQAPGKGLEWVARIRSKYNNYATYYADSVKDRFTISRDDSKNTLYLQMNSLRAEDTAVYYCVRHGNFGNSYVSWFAYWGQGTLVTVSSGGGGSGGGGSGGGGSGGGGSQAVVTQEPSLTVSPGGTVTLTCRSSTGAVTTSNYANWVQQKPGQAPRGLIGGTNKRAPGVPARFSGSLLGGKAALTLSGAQPEDEAEYYCALWYSNLWVFGQGTKVEIKRGGGG[sequence of human IgG1 Fc not given]
light: DIVMTQSPDSLAVSLGERATINCKSSQSLLNSGNQQNYLAWYQQKPGQPPKLLIYGASTRESGVPDRFSGSGSGTDFTLTISSLQAEDVAVYYCQSDHIYPYTFGQGTKLEIKRTVAAPSVFIFPPSDEQLKSGTASVVCLLNNFYPREAKVQWKVDNALQSGNSQESVTEQDSKDSTYSLSSTLTLSKADYEKHKVYACEVTHQGLSSPVTKSFNRGEC
notes: Anti-TROP-2 IgG (VH I31D) with an anti-CD3 scFv (VH-L1-VL) in each heavy chain between CH1 and CH2; also called 抗TROP-2/CD3双抗a; 双特异性抗体分子a
For the molecule B1, the EC50 (as a rule, the concentration that produces a half-maximal response) turned out to be 16.5 pM.

B2: 抗TROP-2/CD3双特异性抗体c (bispecific antibody, human IgG1, kappa)
heavy: EVQLVESGGGLVQPGGSLRLSCAASGFTFNTYAMNWVRQAPGKGLEWVARIRSKYNNYATYYADSVKDRFTISRDDSKNTLYLQMNSLRAEDTAVYYCVRHGNFGNSYVSWFAYWGQGTLVTVSSGGGGSGGGGSGGGGSGGGGSQAVVTQEPSLTVSPGGTVTLTCRSSTGAVTTSNYANWVQQKPGQAPRGLIGGTNKRAPGVPARFSGSLLGGKAALTLSGAQPEDEAEYYCALWYSNLWVFGQGTKVEIKRGGGGSGGGGSGGGGSQVQLVQSGPEVKKPGASVKVSCKASGYTFTDYWLGWVRQAPGQGLEWMGNIFPGSAYINYNEKFKGKVTITADTSTSTAYMELSSLRSEDTAVYFCAREGSNSGYWGQGTLVTVSS[sequence of human IgG1 constant region not given]
light: DIVMTQSPDSLAVSLGERATINCKSSQSLLNSGNQQNYLAWYQQKPGQPPKLLIYGASTRESGVPDRFSGSGSGTDFTLTISSLQAEDVAVYYCQSDHIYPYTFGQGTKLEIKRTVAAPSVFIFPPSDEQLKSGTASVVCLLNNFYPREAKVQWKVDNALQSGNSQESVTEQDSKDSTYSLSSTLTLSKADYEKHKVYACEVTHQGLSSPVTKSFNRGEC
notes: Anti-TROP-2 IgG (VH I31D) with an anti-CD3 scFv at the N-terminus of each heavy chain; also called 抗TROP-2/CD3双抗c; 双特异性抗体分子c
The molecule B2 gave a concentration for a half-maximal effect (EC50) of 18.8 pM.
